In PMC4336329 (PLoS ONE, 2015):
In all, about 310,000 compounds went through this assay and about 2,200 (0.71%) showed an effect of 50% or more. The effect is printed as a negative number. The list shows a part of the results.

Target: human ether-à-go-go-related gene (hERG) potassium channel (human, UniProt Q12809)
Assay: primary screen, population patch clamp on CHO cells stably expressing hERG

Chain of human ether-à-go-go-related gene (hERG) potassium channel (Q12809 whole entry, looked up): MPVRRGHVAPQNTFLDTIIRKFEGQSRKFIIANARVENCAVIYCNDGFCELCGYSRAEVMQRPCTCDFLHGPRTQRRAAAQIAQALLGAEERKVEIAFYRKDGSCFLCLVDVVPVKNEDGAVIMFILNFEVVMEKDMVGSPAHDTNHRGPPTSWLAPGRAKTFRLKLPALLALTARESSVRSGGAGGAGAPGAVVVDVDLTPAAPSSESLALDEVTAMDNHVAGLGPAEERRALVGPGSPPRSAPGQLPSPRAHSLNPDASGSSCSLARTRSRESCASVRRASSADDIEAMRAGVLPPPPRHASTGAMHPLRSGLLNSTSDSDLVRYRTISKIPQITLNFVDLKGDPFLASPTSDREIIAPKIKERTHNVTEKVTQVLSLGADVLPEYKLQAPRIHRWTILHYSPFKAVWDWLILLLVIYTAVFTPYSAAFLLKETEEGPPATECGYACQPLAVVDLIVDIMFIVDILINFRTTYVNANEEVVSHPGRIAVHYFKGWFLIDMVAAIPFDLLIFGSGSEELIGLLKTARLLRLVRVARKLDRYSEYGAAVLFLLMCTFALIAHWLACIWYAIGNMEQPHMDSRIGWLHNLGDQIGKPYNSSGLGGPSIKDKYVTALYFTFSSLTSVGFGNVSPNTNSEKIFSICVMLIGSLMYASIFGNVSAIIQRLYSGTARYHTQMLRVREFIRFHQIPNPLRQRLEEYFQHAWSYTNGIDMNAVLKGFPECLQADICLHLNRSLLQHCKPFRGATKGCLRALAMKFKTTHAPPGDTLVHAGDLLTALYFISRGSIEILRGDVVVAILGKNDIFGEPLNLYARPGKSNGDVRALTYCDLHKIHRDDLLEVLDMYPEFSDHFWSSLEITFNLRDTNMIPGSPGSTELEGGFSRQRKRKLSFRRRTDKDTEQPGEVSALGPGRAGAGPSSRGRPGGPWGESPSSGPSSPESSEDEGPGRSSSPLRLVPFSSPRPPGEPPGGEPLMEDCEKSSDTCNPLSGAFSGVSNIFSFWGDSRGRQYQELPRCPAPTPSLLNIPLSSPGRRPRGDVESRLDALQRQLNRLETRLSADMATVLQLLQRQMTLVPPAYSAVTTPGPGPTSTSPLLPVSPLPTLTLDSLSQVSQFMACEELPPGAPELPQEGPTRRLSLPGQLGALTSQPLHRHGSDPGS

| Structure (SMILES) | hERG current change (%, negative = inhibition) at 1uM [%] |
| --- | --- |
| O=C(NC(Cc1c[nH]c2ccccc12)C(=O)Nc1ccc(F)cc1)c1cccs1 (stereo not shown) | -1.38 |
| Cc1c(C(N)=O)sc2ncn(CC(=O)N3CCC(C)CC3)c(=O)c12 | -4.75 |
| COc1ccc(Cl)cc1C(=O)NNC(=O)c1nc2nc(C)cc(C)n2n1 | 8.9 |
| O=C(CCS(=O)(=O)c1ccc(Cl)cc1)NCCN1C(=O)S/C(=C\c2ccccc2F)C1=O | 15.6 |
| CC(C)C(=O)Nc1cccc(C(=O)Nc2ccccc2C(=O)O)c1 | 5.46 |
| COc1ccc(CCNC(=O)CSCc2ccc([N+](=O)[O-])cc2)cc1 | -7.02 |
| CCN(CC(=O)c1c(N)n(C)c(=O)n(C)c1=O)c1cccc2ccccc12 | 13.7 |
| O=C(Nc1ccc(F)cc1F)C1CCCN1S(=O)(=O)c1cccc2nsnc12 (stereo not shown) | 2.28 |
| Cn1cccc1Cc1nnc(SCC(=O)Nc2ccccc2F)n1CCc1ccccc1 | -2.37 |
| O=C(Nc1ccc(Cl)c(Cl)c1)Nc1ccon1 | 14.1 |
| CCOc1cc(-c2nnn(CC(=O)N3CCCCC3)n2)ccc1OC | 14.3 |
| CCCS(=O)(=O)N1CCCC(C(=O)NCCN2CCCCC2C)C1 (stereo not shown) | 11.9 |
| CCOC(=O)c1sc(=S)n(CC)c1NC(=O)c1ccccc1 | 15.7 |
| CC(C)COC(=O)Nc1ccccc1C(=O)N1CCOCC1 | 11.7 |
| COc1ccccc1OCC(=O)n1cc(C(=O)c2cc(Cl)cc(Cl)c2O)cn1 | 11.1 |
| CC(C)n1c(SCC(=O)N2CCCC2)nc2c1c(=O)n(C)c(=O)n2C | 4.31 |
| CC1=NN(C(=O)CCc2ccccc2)C(c2ccccc2)C1 (stereo not shown) | 8.42 |
| CCCNC(=O)N1CCN(S(C)(=O)=O)CC1 | 14.5 |
| CN(C)C(=O)Nc1ccccc1 | 18.6 |
| CCC(C)NC(=O)C(NS(=O)(=O)c1cccc2nsnc12)c1ccccc1 (stereo not shown) | 8.9 |
| Cc1cc(C)cc(COn2ccnc2)c1 | 2.71 |
| COc1cc2ccccc2cc1C(=O)Nc1ccncc1 | -17.9 |

| Structure (SMILES) | hERG current change (%, negative = inhibition) at 1uM [%] |
| --- | --- |
| CCOC(=O)c1sc(NC(=O)CSc2nnc(Cc3ccccc3)o2)c(C(=O)OCC)c1C | 16.9 |
| CCNC(=O)N1CCNC(=O)C1CC(=O)Nc1ccc(C(=O)OCC)cc1 (stereo not shown) | 4.95 |
| C=CCc1cccc(OC)c1OCCOCCNCCO.O=C(O)C(=O)O | 11.1 |
| O=C(N/N=C/c1ccc(N2CCOCC2)o1)c1ccccc1[N+](=O)[O-] | 12.8 |
| CC1(C)CC(NC(=O)c2cccc([N+](=O)[O-])c2)CC(C)(C)N1 | 7.13 |
| CC1(C)CN(S(=O)(=O)OCC(Cl)(Cl)Cl)C(=O)N1 | 5.16 |
| CC(C)(C)c1ccc(OC(=O)c2ccc(-n3cncn3)nc2)cc1 | 10.9 |
| O=C(CN(Cc1ccc(Br)cc1)S(=O)(=O)c1ccccc1)NCc1ccncc1 | -33.3 |
| Cc1cc(C(=O)Nc2ccccc2[N+](=O)[O-])cs1 | -14.8 |
| CNC(=O)c1sc(-c2ccccc2)nc1C | 5.9 |
| COc1ccc(NC(=S)N(Cc2ccc(C(=O)O)cc2)Cc2ccc(OC)c(OC)c2)cc1 | 22.5 |
| CC(C)(C)OC(=O)NCCc1nnc(SCC(=O)c2ccc(Cl)cc2)o1 | 13.2 |
| O=C(Nc1ccc(C(=O)Oc2ccccc2)c(O)c1)c1ccccc1 | 2.1 |
| Cc1cc(F)ccc1N1CCC(N2CCN(CCC(C)C)C(CCO)C2)CC1 (stereo not shown) | -29.7 |
| O=C1C2ON(c3ccccc3)C(c3cccnc3)C2C(=O)N1c1ccccc1 (stereo not shown) | 10.6 |
| CC(=O)N(Cc1cccc(Br)c1)c1ccc(N2CCOCC2)c(Cl)c1 | 11 |
| CC(C)Nc1nc(-c2cccnc2)nc(-c2ccccc2)c1C#N | 0.157 |
| CCc1ccc(OCC(=O)NCCN(C)C)c(Br)c1 | -24.2 |
| CN(Cc1cccc(F)c1)C(=O)Cc1ccc(S(=O)(=O)N2CCOCC2)s1 | -5.45 |
| CC(=O)c1ccccc1NC(=O)COC(=O)c1cc2ccccc2[nH]1 | 12.4 |
| COc1ccc(CNC(=O)C2CC(c3ccc(F)cc3)=NO2)cc1 (stereo not shown) | -4.75 |
| Cn1c(N)c(C(=O)COC(=O)CCc2c[nH]c3ccccc23)c(=O)n(C)c1=O | 11.1 |

| Structure (SMILES) | hERG current change (%, negative = inhibition) at 1uM [%] |
| --- | --- |
| O=C(Cn1nc(Cc2cccnc2)c2ccccc2c1=O)Nc1ccc2c(c1)OCO2 | 11.6 |
| COc1ccc(NC(=O)c2cnc(SC)n2-c2ccc(F)cc2)c(OC)c1 | 12 |
| Cc1cc([N+](=O)[O-])nn1CC(=O)Nc1ccc(F)cc1 | 10.8 |
| CC1=C(C(=O)Nc2ccccc2C(F)(F)F)C(c2ccc(C)s2)NC(=S)N1 (stereo not shown) | 10.1 |
| Cc1ccc(NC(=O)C(=O)Nc2ccc(C)cn2)nc1 | 3.92 |
| Cl.NC1=NC(c2ccccc2C(F)(F)F)N(c2ccc(F)c(Cl)c2)C(N)=N1 (stereo not shown) | 14.7 |
| COc1ccccc1NC(=O)C1CCCCC1 | 3.37 |
| CCN1C(=O)C2CCCCN2c2ccc(C(=O)NCCOC)cc21 (stereo not shown) | 16.5 |
| O=C(CSCc1c(F)cccc1Cl)Nc1ccccc1C(=O)N1CCOCC1 | 0.65 |
| O=[N+]([O-])c1ccc(N/N=C/c2c[nH]c3ccccc23)c(S(=O)(=O)Nc2ccc(Cl)cc2)c1 | 10.7 |
| CCc1ccc(C(=O)COC(=O)c2ccc(-c3nnc(-c4ccccc4)o3)cc2)cc1 | 7.51 |
| CCN(CC)CCCN(Cc1cc2cc3c(cc2[nH]c1=O)OCO3)C(=S)NCc1ccco1 | -7.8 |
| O=C(Cc1nnc(NC(=O)Nc2ccccc2F)s1)NCc1ccccc1 | 2.14 |
| CCOc1ccccc1NC(=S)N1CCC(NC(=O)c2ccco2)CC1 | 6.6 |
| Cc1ccc(C)c(Oc2coc3cc(OCC(=O)Nc4ccccc4C(C)C)ccc3c2=O)c1 | 10.4 |
| CC(C)NCC(O)c1cc(O)cc(O)c1.O=S(=O)(O)O (stereo not shown) | 16.8 |
| O=C(NCc1ccccn1)c1cc2ccccc2oc1=O | 11.8 |
| COc1cc2cncc(Cc3ccc(Cl)cc3)c2cc1OC.CS(=O)(=O)O | 2.88 |
| O=C(Nc1c(Cl)cccc1Cl)C1CCC1 | 13.8 |
| COc1ccc(NC(=O)COC(=O)COc2cccc3c2OC(C)(C)C3)cc1 | 14.9 |
| O=C(CN1CCCCC1)Nc1ccc(Br)cc1[N+](=O)[O-] | 12.9 |
| CC(=O)NCCOc1c(C)cc(S(N)(=O)=O)cc1C | 15.2 |

| Structure (SMILES) | hERG current change (%, negative = inhibition) at 1uM [%] |
| --- | --- |
| NC(=O)c1ccsc1NC(=O)COC(=O)c1ccccc1F | 9.85 |
| COc1ccc(N(C(=O)c2ccn[nH]2)C(C(=O)NC2CCCC2)c2ccc(F)cc2)cc1 (stereo not shown) | 6.73 |
| C/C(=N\NC(=O)c1ccccc1F)c1cccc(NC(=O)c2ccccc2)c1 | 1.71 |
| CN1C2=C(C(=O)CC(C)(C)C2)C(c2cccs2)C2=C1CC(C)(C)CC2=O | 9.37 |
| Cc1ccc(N(Cc2cc(=O)[nH]c3ccccc23)C(=O)C(C)C)c(C)c1 | 2.37 |
| COc1cc(NC(=S)NCc2ccco2)cc(OC)c1 | 11.7 |
| Cc1ccc(-n2ncc3c(=O)[nH]c(SCC(=O)N4CCN(c5ccccc5)CC4)nc32)cc1 | 7.21 |
| CSCCC(C(=O)N1C[C@]2(C)C[C@H]1CC(C)(C)C2)N1C(=O)c2ccccc2C1=O (stereo partly shown) | 8.43 |
| COC(=O)COc1cccc(NC(=O)c2ccccc2)c1 | 9.52 |
| O=C(CN1CCN(c2cccc(C(F)(F)F)c2)CC1)N(C1CC1)C1CCS(=O)(=O)C1 (stereo not shown) | -16.7 |
| CN(C)c1nc2c(c(=O)[nH]c(=O)n2C)n1Cc1ccc(F)cc1 | 5.02 |
| COC(=O)[C@H](Cc1ccccc1)NC(=O)NCc1ccccc1 | 3.86 |
| CN1CC(C(=O)c2ccc(F)cc2)C(c2ccc(F)cc2)C1 (stereo not shown) | -4.82 |
| COc1cccc(-c2nnn(CC(=O)N3CCCCC3)n2)c1 | 7.13 |
| NC(=O)CC(NC(=O)c1ccc(Br)cc1)c1ccc(N2CCN(c3ccc(F)cc3)CC2)c([N+](=O)[O-])c1 (stereo not shown) | 9.66 |
| Cc1ccc(Nc2cnn(C34CC5CC(CC(CC(=O)O)(C5)C3)C4)c(=O)c2Cl)cc1 | 7.29 |
| CC(=O)c1cccc(NC(=O)C(Sc2ncnc3ccccc23)c2ccccc2)c1 (stereo not shown) | 10.2 |
| O=C(c1cc2nc(-c3ccco3)cc(C(F)(F)F)n2n1)N1CCN(c2ccc(F)cc2)CC1 | 0.738 |
| CCc1ccc(CN(C)Cc2nc(COc3ccccc3)no2)nc1 | 7 |
| O=C1CN(C(=O)COC(=O)Cc2ccccc2)c2ccccc2N1 | 9.97 |
| COc1ccc(/C=C/C(=O)Nc2ccc(C(N)=O)cc2)cc1OC | 13.1 |
| Cn1c(CNC(=O)CCNC(=O)c2ccc(F)c(F)c2)cc(=O)n(C)c1=O | 15.4 |
